From PubChem BioAssay AID1508624 (National Center for Advancing Translational Sciences (NCATS), 2021)
In all, about 48,000 compounds went through this assay and about 120 (0.25%) were called active. Not shown: some 4% with an inconclusive outcome. Calls come from the whole dose curve; as a rule, active = well fitted activation curve with a large enough effect; inconclusive = small, poorly fitted or top-dose-only effect, or another doubt; inactive = no such curve, though single readings can be large or run the other way. This is one part of the list.

Assay: Primary qHTS for Identification of Small Molecule Activators of Huntingtin-Antisense Promoter Activity; note: nearly all actives have a fitted effect of over 55% in size
Conditions: HEK293 HTT-AS promoter firefly luciferase reporter (activity 0% = vehicle and -100% = no light), 24 h; series mostly up to 57.5 µM; activity change, positive = activation: at the top concentration
In short: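 HEK293 cells carrying firefly luciferase reporters were seeded at 2,500 per well in Opti-MEM and cultured for 24 h. They were then treated with compounds at up to 57.5 uM final for 24 h at 37 degrees C before Dual-Glo luminescence readout.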

Activity change, positive = activation, inactive:
CCn1c(Oc2ccc(F)cc2F)nc2c1c(=O)n(C)c(=O)n2C -28.8%, CCOc1ccc(CC(=O)Nc2c(C(=O)c3ccc(Cl)cc3)oc3ccccc23)cc1OCC -9.64%, CC1=C(C(=O)Nc2ccc(Cl)cc2)C(c2cccs2)n2nc(SCc3cccc(Cl)c3)nc2N1 (stereo unspecified) 0.493%, Cc1cccc(S(=O)(=O)c2cn(Cc3ccccc3)c3cc(N4CCC(C)CC4)c(F)cc3c2=O)c1 -11.2%, CCC1=Nc2cc(C(=O)NCCc3ccccc3)ccc2Sc2ccc(Cl)cc21 -18.9%, CCc1cc2c(cc3c(=O)n(CC(=O)NCc4cccc(Cl)c4)nc(CC)n32)s1 1.04%, COc1ccc(Nc2cc(C(=O)NCCCN(C)Cc3ccccc3)c3ccccc3n2)cc1OC -11.6%, COc1ccc(-n2nc3cc(C)c(NC(=O)COc4cccc(C)c4)cc3n2)cc1 2.55%, COc1cccc(CNC(=O)C(=O)NCC(c2cccs2)S(=O)(=O)c2cccs2)c1 (stereo unspecified) -23.1%, COc1cccc(OCc2nc3ccccc3n2Cc2ccccc2)c1 4.36%, CCC(CC)C(=O)Nc1cccc(-c2nc3cccnc3s2)c1 1.64%, COc1cccc(COC(=O)c2nn(-c3ccccc3)nc2N)c1 -0.804%, CNC(=O)C1CCC(Cn2c(=O)c3sccc3n(Cc3ccccc3)c2=O)CC1 (stereo unspecified) -6.08%, Cc1csc2nc(COC(=O)c3ccccc3NC(=O)c3ccccc3Cl)cc(=O)n12 -41.6%, COc1ccccc1CCNC(=O)c1cc2c(=O)n3cccc(C)c3nc2n1C -3.1%, COc1cc(OC)c(NC(=O)C(C)n2c(=O)cc(-c3ccccc3)c3c(C)nn(C)c32)cc1Cl (stereo unspecified) -34.5%, CCOc1ccc(-c2nc(Cn3c(=O)cc(-c4ccccc4)c4c(C)nn(C)c43)c(C)o2)cc1OC -5.48%, CCc1ccc(NC(=O)N2CC=C(c3c[nH]c4ccccc34)CC2)cc1 -25.4%, COc1ccc(C(=O)NCC(c2cccnc2)N2CCc3ccccc3C2)cc1 (stereo unspecified) -28.6%, CCN(CC)c1ccc(NC(=O)CCS(=O)(=O)c2cccc3nsnc23)c(C)c1 -7.46%, CCOC(=O)c1[nH]c(C)c(CCC(=O)Nc2cc(Cl)ccc2C)c1C -24%, COc1ccc(CCNc2ncnc3c2cnn3-c2cccc(Cl)c2)cc1 -25.4%, Cc1cc(C)n(CCc2nc3c4ccccc4nc(N4CCN(c5ccccc5F)CC4)n3n2)n1 -18.9%, C#CC(C)(CC)NC(=O)c1cnn2c(C(F)F)cc(-c3ccccc3OC)nc12 (stereo unspecified) -0.427%, CC(C)CCNC(=O)c1ccc2c(c1)NC(=O)C(CS(=O)(=O)Cc1cccc(Br)c1)N2 (stereo unspecified) -2.45%, Cc1ccc(Cn2ccnc2SCC(=O)NCc2ccc(F)cc2)cc1 -4.39%, COc1ccc(NC(=O)CSc2nc3ccccc3n2CC(=O)N(C)c2ccc(F)cc2)cc1 0%, COc1ccc(OCCCCn2c(C3CC(=O)N(c4cccc(Cl)c4)C3)nc3ccccc32)cc1 (stereo unspecified) -45.1%, CN1C(=O)C2(SCC(=O)N2c2cccc(C(F)(F)F)c2)c2ccccc21 (stereo unspecified) -12.1%, CCOC(=O)C1CCC(CN(Cc2ccc(Cl)cc2)S(=O)(=O)c2ccc(Br)cc2)CC1 (stereo unspecified) -7.02%, COc1ccc(-c2onc(C)c2C)cc1S(=O)(=O)N(C)Cc1ccco1 -18.4%, CC(=O)Oc1cccc(O)c1 -1.76%, CCOC(=O)C1CCN(CC(=O)N2CCCc3c2c(=O)oc2ccc(OCc4ccccc4)cc32)CC1 10.9%, CCCN1CCN(CCNC(=O)Nc2ccc(OC)c(OC)c2)CC1 -3.54%, CCOc1ccc(NC(=O)c2cn(C)c(=O)c3cc(OC)c(OC)cc23)cc1 1.16%, COc1ccc(NC(=O)c2sc3nc(C)c(C(=O)Nc4ccc(C)cc4C)c(-c4ccc(C)o4)c3c2N)cc1 13.9%, Cc1ccc(Nc2nc(C)cc(C)n2)c(C(=O)O)c1 -12.4%, CCc1ccc(NC(=O)CN2C(=O)C3(SCC(=O)N3c3ccccc3)c3ccccc32)cc1 (stereo unspecified) -28.9%, Cc1ccc(Cl)cc1NC(=O)CSC1=Nc2ccccc2C2=NC(Cc3ccccc3)C(=O)N12 (stereo unspecified) -35.5%, CC1(C)CC(=O)c2cc(-c3nc(-c4ccc(Cl)cc4)cs3)c(=O)n(-c3ccc(Cl)cc3)c2C1 -15.1%, COc1ccc(NC(=O)Cn2nc(-c3ccncc3)ccc2=O)cc1Cl -1.05%, CCCCN(CCCC)CC(O)Cn1cc(/C=C/C(=O)c2ccccc2)c2ccccc21 (stereo unspecified) -38.2%, O=c1c(=O)n(-c2cccc(Cl)c2)ccn1Cc1cccc(F)c1 -33.5%, CC(=O)N1CCc2cc(S(=O)(=O)NC(CC(C)C)C(=O)NCc3ccccc3)ccc21 (stereo unspecified) 17.2%, COc1cccc2c1cc1c(=O)n(CC(=O)NC3CC3)nc(C)n12 -6.82%, COc1cccc(-c2nc(CSCC(=O)NCCc3ccc(Cl)cc3)c(C)o2)c1 -51.5%, Cc1nnc(SCC(=O)Nc2ccc(Br)cc2)[nH]c1=O -28.8%, CCCCC(CC)CNC(=O)CCCn1c(=O)[nH]c2ccsc2c1=O (stereo unspecified) -19.5%, COc1ccc(C)cc1Nc1nc(-c2cccc(Cl)c2)c2c(n1)-c1ccccc1OC2 -11.8%, COc1cc(-c2nc(Cn3nnc(C(=O)Nc4cc(C)cc(C)c4)c3C)c(C)o2)cc(OC)c1OC -34.8%, Cc1ccc(-c2nc(N3CCN(c4ccccc4Cl)CC3)c3ccccc3n2)cc1 -4.33%, CCOc1ccc(NC(=O)C(NC(=O)C2CCC(C)CC2)C(C)C)cc1 (stereo unspecified) -1.73%, CCOC(=O)c1cc(-c2ccccc2)n(CC(=O)N(C)c2ccc(OC)cc2)c1C -23.5%, C[C@](Cc1c[nH]c2ccccc12)(NC(=O)OC1C2CC3CC(C2)CC1C3)C(=O)NC[C@H](NC(=O)CCC(=O)O)c1ccccc1 (stereo partly specified) -12.4%, CCS(=O)(=O)N1CC(=O)N(c2cccc(Cl)c2C)C(C)(C(=O)NC2CCCCC2)C1 (stereo unspecified) -10.3%, CCN(CCCNC(=O)c1cc2cc3ccc(C)cc3nc2s1)c1ccccc1 -17%, CCCN(c1ccccc1CC)S(=O)(=O)c1ccc2c(c1)CC(C)N2C(=O)C1CC1 (stereo unspecified) -58%, CCCc1c(OCCCCc2nn[nH]n2)ccc(C(C)=O)c1O -10.1%, COCCNC(=O)CCCN1C(=O)c2ccccc2Sc2ncccc21 -8.44%, Cc1ccc(NC(=O)c2oc3ccc(S(=O)(=O)N(C)C4CCCCC4)cc3c2C)cc1Cl -13.1%, O=S(=O)(c1cccc(F)c1)N1CCC(c2nc3ccccc3s2)CC1 12.1%, Cc1cc(C)cc(NS(=O)(=O)c2ccc3c(c2)NC(=O)C(C)S3)c1 (stereo unspecified) -28%, CCOC(=O)c1c(C)oc2nc(C)nc(Nc3ccc(CC)cc3)c12 -20.2%, CCn1c(C(=O)N2CCC(C(=O)NCCc3ccc(OC)cc3OC)CC2)cc2sccc21 -30.8%, Cc1c(C(=O)NCc2ccccc2Br)oc2c1-c1[nH]ncc1CC2 11.3%, CCN1CCN(c2c(S(=O)(=O)c3ccc(OC)cc3)cnc3cc(OC)c(OC)cc23)CC1 -10.3%, CCc1ccc(S(=O)(=O)c2nnn3c2nc(NC2CCCCCC2)c2sccc23)cc1 -14.3%, COc1cccc2c1Oc1ncccc1N(C(=O)Nc1ccc(F)c(Cl)c1)C2 -25%, CCOC(=O)C(CC)Sc1ccc2nnc(CCNS(=O)(=O)c3ccc(C)cc3)n2n1 (stereo unspecified) -6.76%, CCOCCCNC(=O)C1CCC(CNS(=O)(=O)c2ccc(NC(C)=O)cc2)CC1 (stereo unspecified) -2.15%, Cc1ccc(C)c(CN2C(=O)c3ccccc3S(=O)c3ccc(C(=O)NCc4ccccc4)cc32)c1 (stereo unspecified) -17.3%, COc1ccc(NC(=O)c2ccc(-c3nc(CSc4ccccc4)c(C)o3)cc2)cc1OC -23%, COc1ccccc1Cc1nc2ccccc2[nH]c1=O 3.23%, CCOC(=O)c1cc2c(=O)n3ccccc3nc2n(CCCOC)c1=NC(=O)C(C)Oc1ccccc1 (stereo unspecified) 4.82%, COc1ccc(CNC(=O)CN(c2ccccc2)S(=O)(=O)N(C)C)cc1 -2.44%, Cc1ccc(CNC(=O)c2ccc(Cn3c(SCc4ccccc4F)nc4cccnc43)cc2)cc1 -6.84%, CN(C)S(=O)(=O)c1ccc(C(=O)N2CC(=O)Nc3ccc(Br)cc3C2c2ccc(F)cc2)cc1 (stereo unspecified) -0.345%, CC1CCN(C(=O)Cn2c(=O)oc3cc(S(=O)(=O)N4CCCCC4)ccc32)CC1 -16.5%, CCOc1cc(CNc2ccc(O)cc2)ccc1OCc1ccc(Cl)cc1 6.51%, CCOc1ccc(CC(=O)NCCc2sc3nc(-c4ccc(OC)cc4)nn3c2C)cc1 -16%, CCN1CCN(c2c(S(=O)(=O)c3ccc(C)c(C)c3)cnc3cc(OC)c(OC)cc23)CC1 -18.9%, Cc1cccc(-n2c(=O)c3c4c(sc3n3cnnc23)CCCC4)c1 -2.53%, Cc1cc(C)cc(NC2=CC(c3cccc(F)c3)N(c3cc(C)cc(C)c3)C2=O)c1 (stereo unspecified) 5.26%, Cc1cc(=O)n(Cc2cccc(Cl)c2)c2c1c(C)nn2-c1ccccc1 -17.6%, CCN(CC)C(=O)c1sc2c(c1C)c(=O)n(-c1ccccc1)c(=O)n2CC(=O)Nc1ccc(C)cc1C -9.97%, CCCCSc1ncnc2c1c(-c1ccccc1)cn2-c1cccc(F)c1 -18.7%, CCN(CC)S(=O)(=O)c1nnc(NC(=O)COc2ccc(Cl)cc2)s1 -24.8%, CC(=O)Nc1cc(NC(C)=O)cc(-c2nc3ccccc3[nH]2)c1 -93.8%, CCOC(=O)Cn1cnc2onc(-c3ccc(F)cc3)c2c1=O -4.06%, COc1ccc(C(CNC(=O)COc2ccc(Cl)c(C)c2)N2CCOCC2)cc1 (stereo unspecified) -21.4%, CCC1CCCCN1CCCNC(=O)c1cc2c(Cl)nc3ccccc3c2s1 (stereo unspecified) -30.3%, COC(=O)c1ccccc1NC(=O)Cn1c(=O)n(Cc2ccc(C(=O)NCc3ccc4c(c3)OCO4)cc2)c(=O)c2ccccc21 -5.14%, CCOC(=O)c1c(C)oc2ncnc(Nc3ccc(OCC)cc3)c12 -5.96%, Cc1ccc(C)c(N2C(=O)N(Cc3cc(=O)n4ccccc4n3)c3ccccc3S2(=O)=O)c1 -38.2%, COc1cccc(C(=O)c2sc3nc(-c4ccccc4)cc(C(F)(F)F)c3c2N)c1 -17.8%, CCc1cccc(NC(=O)Nc2csc3c2CCCC3)c1 -13.4%
